In this assay the test system is platelets. The assay can be described thus: Plasma clot formation by activated platelets or their membranes. It is filed as cell-based, human.

Consider `CCN1/C(=C/C(C)=O)Sc2ccc(OC)cc21` [Tg003, (Z)-1-(3-Ethyl-5-methoxy-2,3-dihydrobenzothiazol-2-ylidene)propan-2-one], for which the “accelerated clotting of human plasma by membranes of stimulated platelets” value was “blocked”.
